# Laboratory results as given in a collection of fitness landscapes (doi:10.1126/science.1257360).
# The other results are listed elsewhere or left out.
# B1: PhoQ; a variant is named by its letters at X, in order, P23837 (parent)
# chain: MKKLLRLFFPLSLRVRFLLATAAVVLVLSLAYGMVALIGYSVSFDKTTFRLLRGESNLFYTLAKWENNKLHVELPENIDKQSPTMTLIYDENGQLLWAQRDVPWLMKMIQPDWLKSNGFHEIEADVNDTSLLLSGDHSIQQQLQEVREDDDDAEMTHSVAVNVYPATSRMPKLTIVVVDTIPVELKSSYMVWSWFIYVLSANLLLVIPLLWVAAWWSLRPIEALAKEVRELEEHNRELLNPATTRELTSLVRNLNRLLKSERERYDKYRTTLTDLTHSLKTPLXXLQXXLRSLRSEKMSVSDAEPVMLEQISRISQQIGYYLHRASMRGGTLLSRELHPVAPLLDNLTSALNKVYQRKGVNISLDISPEISFVGEQNDFVEVMGNVLDNACKYCLEFVEISARQTDEHLYIVVEDDGPGIPLSKREVIFDRGQRVDTLRPGQGVGLAVAREITEQYEGKIVAGESMLGGARMEVIFGRQHSAPKDE
# Variants of: B1
# Assay: enrichment ratio after two sorts for PhoP signalling (ratio (wild type AVST 3.29)); higher = more functional
# Conditions: with PhoP (E. coli)
row,Variant,enrichment ratio
1,WFHC,≤ 0.25
2,AERW,≤ 0.25
3,FMNT,≤ 0.25
4,FQKK,≤ 0.25
5,NGWN,≤ 0.25
6,QDNY,≤ 0.25
7,DNNS,≤ 0.25
8,KLEY,≤ 0.25
9,GVNF,≤ 0.25
10,DELA,≤ 0.25
11,GWDY,≤ 0.25
12,GSCK,≤ 0.25
13,MKCD,≤ 0.25
14,ITAG,≤ 0.25
15,KPEW,≤ 0.25
16,TYKM,≤ 0.25
17,RLDM,≤ 0.25
18,FWEN,≤ 0.25
19,ECVR,≤ 0.25
20,VEQL,≤ 0.25
21,MHKC,≤ 0.25
22,GLAG,≤ 0.25
23,SNVR,≤ 0.25
24,PYVD,≤ 0.25
25,TRFA,≤ 0.25

row,Variant,enrichment ratio
1,ADWT,≤ 0.25
2,EYMY,≤ 0.25
3,ENMT,≤ 0.25
4,PTIQ,≤ 0.25
5,EMCY,≤ 0.25
6,QTGY,≤ 0.25
7,HPGK,≤ 0.25
8,DIHM,≤ 0.25
9,HMFG,≤ 0.25
10,LGCT,≤ 0.25
11,IIMM,≤ 0.25
12,PKCT,≤ 0.25
13,QNMI,≤ 0.25
14,WYII,≤ 0.25
15,HWPR,≤ 0.25
16,SFCC,≤ 0.25
17,EHQM,≤ 0.25
18,EHQT,≤ 0.25
19,ALAI,5.26
20,RIRV,≤ 0.25
21,VELF,≤ 0.25
22,RCEP,≤ 0.25
23,MYYV,≤ 0.25
24,MESQ,7.96
25,QYDA,≤ 0.25

row,Variant,enrichment ratio
1,FMYM,≤ 0.25
2,ICSH,≤ 0.25
3,ATRD,≤ 0.25
4,YEHE,≤ 0.25
5,SDHV,≤ 0.25
6,NTID,≤ 0.25
7,MLWT,≤ 0.25
8,RYVC,≤ 0.25
9,QTFN,1.88
10,HQMQ,≤ 0.25
11,HLEF,≤ 0.25
12,ISDF,0.318
13,SKKV,≤ 0.25
14,TVTD,≤ 0.25
15,SPYW,≤ 0.25
16,GRPC,≤ 0.25
17,FTDR,≤ 0.25
18,PTEY,≤ 0.25
19,NWGG,≤ 0.25
20,SGYI,2.6
21,HYHI,≤ 0.25
22,TTGT,5.55
23,DEYI,≤ 0.25
24,HCST,≤ 0.25
25,FHMP,≤ 0.25

row,Variant,enrichment ratio
1,KTNE,≤ 0.25
2,DKYE,≤ 0.25
3,DCWI,≤ 0.25
4,PQFY,≤ 0.25
5,VNCH,7.43
6,RPAC,≤ 0.25
7,KGLN,≤ 0.25
8,VCKL,≤ 0.25
9,VNEY,≤ 0.25
10,HNTW,≤ 0.25
11,INQA,≤ 0.25
12,HVLS,≤ 0.25
13,TASV,17.9
14,FQTY,≤ 0.25
15,YQCC,≤ 0.25
16,FGKT,≤ 0.25
17,VEYT,≤ 0.25
18,IQGY,≤ 0.25
19,ILDK,≤ 0.25
20,FDTF,≤ 0.25
21,GYTP,≤ 0.25
22,HLQG,≤ 0.25
23,GRAW,≤ 0.25
24,IMKG,≤ 0.25
25,FTCW,≤ 0.25

row,Variant,enrichment ratio
1,MRLG,≤ 0.25
2,YCNI,≤ 0.25
3,YYVI,≤ 0.25
4,RRCW,≤ 0.25
5,PILV,≤ 0.25
6,GRVK,≤ 0.25
7,KGGC,≤ 0.25
8,GEHI,≤ 0.25
9,KWAV,≤ 0.25
10,DDIH,≤ 0.25
11,LMDA,≤ 0.25
12,SPTS,≤ 0.25
13,MYLT,≤ 0.25
14,QGQW,≤ 0.25
15,MELL,3.52
16,TWWT,≤ 0.25
17,LGSW,≤ 0.25
18,YLRN,≤ 0.25
19,MEPC,≤ 0.25
20,FSKP,≤ 0.25
21,TDYP,≤ 0.25
22,GWVG,≤ 0.25
23,NPWC,≤ 0.25
24,YIPQ,≤ 0.25
25,VSGE,≤ 0.25

row,Variant,enrichment ratio
1,PRQF,≤ 0.25
2,EDFT,≤ 0.25
3,MWAF,≤ 0.25
4,HDPC,≤ 0.25
5,FNPQ,≤ 0.25
6,VPYW,≤ 0.25
7,QYMD,≤ 0.25
8,EAIN,≤ 0.25
9,PIDG,≤ 0.25
10,SPPI,≤ 0.25
11,YFAI,≤ 0.25
12,NCAI,≤ 0.25
13,NAAW,≤ 0.25
14,RDAN,≤ 0.25
15,ASPQ,≤ 0.25
16,AYII,0.326
17,IRVH,≤ 0.25
18,NCKY,≤ 0.25
19,DSDG,≤ 0.25
20,THIV,≤ 0.25
21,ASKC,≤ 0.25
22,HPKS,≤ 0.25
23,SPGI,≤ 0.25
24,WANK,≤ 0.25
25,GTMS,≤ 0.25

row,Variant,enrichment ratio
1,METF,≤ 0.25
2,ENMA,≤ 0.25
3,YFQH,≤ 0.25
4,DSEF,≤ 0.25
5,VESH,≤ 0.25
6,MFTV,≤ 0.25
7,RIMT,≤ 0.25
8,RFFF,≤ 0.25
9,KINF,≤ 0.25
10,SGDW,≤ 0.25
11,NPWW,≤ 0.25
12,TKMV,10.5
13,VVTA,≤ 0.25
14,MLEK,≤ 0.25
15,TQEN,≤ 0.25
16,ILIW,≤ 0.25
17,LHQY,≤ 0.25
18,HHFV,≤ 0.25
19,KRCL,≤ 0.25
20,KDEF,≤ 0.25
21,MKAV,7.84
22,CIIF,≤ 0.25
23,HHMS,≤ 0.25
24,GGMK,≤ 0.25
25,SDQC,≤ 0.25

row,Variant,enrichment ratio
1,HCCF,≤ 0.25
2,HDWK,≤ 0.25
3,RNCD,≤ 0.25
4,NDDN,≤ 0.25
5,LYMD,≤ 0.25
6,RTKC,≤ 0.25
7,AYSM,0.264
8,LNDY,≤ 0.25
9,MNRV,≤ 0.25
10,QWVQ,≤ 0.25
11,IQTT,≤ 0.25
12,SCFH,≤ 0.25
13,NNMN,≤ 0.25
14,IAVG,≤ 0.25
15,LVAQ,≤ 0.25
16,TWPN,≤ 0.25
17,IFNV,≤ 0.25
18,MYHC,≤ 0.25
19,TDQN,6.18
20,HRDM,≤ 0.25
